According to patent US20200048358A1 (ALLIGATOR BIOSCIENCE, published 2020):

biological target: CTLA-4 (BMS, Orencia) (human, UniProt P16410 38-152); test: cell-based or functional assay
Sequence of UniProt P16410 (P16410 38-152 limits assumed): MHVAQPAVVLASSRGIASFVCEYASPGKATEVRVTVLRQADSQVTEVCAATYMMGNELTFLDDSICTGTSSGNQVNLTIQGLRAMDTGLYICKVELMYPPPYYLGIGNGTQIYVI

Row | Mean IL-2 level (pg/ml) induced at 1.5 nM bispecific antibody or control [pg/mL] | Binder
1 | 2580 | bispecific molecule 1170/1141 (as printed in Tables 10.1 and 10.2) (bispecific antibody) heavy: EVQLLESGGGLVQPGGSLRLSCAASGFTFGGYYMSWVRQAPGKGLEWVSYIPGSGGSTYYADSVKGRFTISRDNSKNTLYLQMNSLRAEDTAVYYCARYDYYWMDYWGQGTLVTVSS[sequence of human IgG1 constant region omitted] light: not shown
2 | 2670 | bispecific molecule 1542/1141 (bispecific antibody) heavy: EVQLLESGGGLVQPGGSLRLSCAASGFTFGSSSMYWVRQAPGKGLEWVSGIGYYSYSTSYADSVKGRFTISRDNSKNTLYLQMNSLRAEDTAVYYCARGYPHHYFDYWGQGTLVTVSS[sequence of human IgG1 constant region omitted] light: not shown
3 | 5020 | bispecific molecule 1164/1141 (bispecific antibody) heavy: EVQLLESGGGLVQPGGSLRLSCAASGFTFYGSSMYWVRQAPGKGLEWVSGIYSSGGYTSYADSVKGRFTISRDNSKNTLYLQMNSLRAEDTAVYYCARGVPHGYFDYWGQGTLVTVSS[sequence of human IgG1 constant region omitted] light: not shown
4 | 2680 | bispecific molecule 1168/1141 (bispecific antibody) heavy: EVQLLESGGGLVQPGGSLRLSCAASGFTFSGSSMSWVRQAPGKGLEWVSSISYYGGYTYYADSVKGRFTISRDNSKNTLYLQMNSLRAEDTAVYYCARYFPHYYFDYWGQGTLVTVSS[sequence of human IgG1 constant region omitted] light: not shown
